Experimental findings from the supplement of paper PMC12645437, “Orthogonal IMiD-Degron Pairs Induce Selective Protein Degradation in Cells” (ACS Chemical Biology, 2025) are described below.

The list shows a part of the results.
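Note: jurkat cells carrying a lentiviral library of mutant zinc finger degrons fused to EGFP plus mCherry, mCherry+ cells FACS sorted, degron abundance counted by next-generation sequencing.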

In this assay the target is no compound (DMSO). In words: log2 fold change of degron read counts, EGFP-low vs EGFP+ sorted cells; higher = lower degron-EGFP level without compound (poor expression or instability). As to conditions: compound: DMSO control; 18 h.
On to FCCNQCGASFTQKGNLLRHIKL, for which the “log2 fold change of degron read counts” value was -0.195.
As for LICPICGFYCTQKGNLLRHIKL, the “log2 fold change of degron read counts” value came out at 1.9.
In the case of FSCEICGARFTQKGNLLRHIKL, the “log2 fold change of degron read counts” value was -1.01.
For FDCNQCGHEFTQKGNLLRHIKL the value was 0.136.
Turning to LRCPICGFKCTQKGNLLRHIKL, the “log2 fold change of degron read counts” value came to 0.971.
As for LLCEICGFKCTQKGNLLRHIKL, the “log2 fold change of degron read counts” value amounted to 0.168.
Regarding FTCPVCGAWFTQKGNLLRHIKL, the “log2 fold change of degron read counts” value was 0.486.
In the case of FWCNQCGHCFTQKGNLLRHIKL, the “log2 fold change of degron read counts” value was found to be 1.16.
Regarding FVCPICGRCFTQKGNLLRHIKL, the “log2 fold change of degron read counts” value is -0.0355.
To FKCEICGHPFTQKGNLLRHIKL belongs -0.322; to FRCDQCGAHFTQKGNLLRHIKL, -0.377; to FQCPQCGAEFTQKGNLLRHIKL, -1.66.
On to FQCPICGRDFTQKGNLLRHIKL, for which the “log2 fold change of degron read counts” value was -0.943.
Turning to FHCDICGAEFTQKGNLLRHIKL, the “log2 fold change of degron read counts” value is -1.62.
To LMCNQCGFNCTQKGNLLRHIKL belongs 0.226.
For FMCEICGAVFTQKGNLLRHIKL the value was -0.834.
To FWCPVCGANFTQKGNLLRHIKL belongs 0.409.
Take FFCSVCGHFFTQKGNLLRHIKL: the “log2 fold change of degron read counts” value is 1.48.
For FRCNQCGAVFTQKGNLLRHIKL the value was 0.0794.
For FHCNQCGRRFTQKGNLLRHIKL the value was 0.407; for FSCNVCGAMFTQKGNLLRHIKL, -0.643.
For FSCDVCGADFTQKGNLLRHIKL the value was -1.39; for FSCDQCGAAFTQKGNLLRHIKL, -2.05; for FRCNVCGAWFTQKGNLLRHIKL, 0.306.
As to FKCDQCGANFTQKGNLLRHIKL, the “log2 fold change of degron read counts” value is -2.53.
To FCCNQCGHTFTQKGNLLRHIKL belongs -0.535.
Consider LDCEICGFYCTQKGNLLRHIKL, for which the “log2 fold change of degron read counts” value was 1.43.
For the sequence FMCEQCGAAFTQKGNLLRHIKL, the “log2 fold change of degron read counts” value was -2.56.
FLCPICGASFTQKGNLLRHIKL: the “log2 fold change of degron read counts” value was -0.616.
To FGCEICGRNFTQKGNLLRHIKL belongs -1.61; to FTCEICGADFTQKGNLLRHIKL, -1.84.
To FTCSVCGHRFTQKGNLLRHIKL belongs -0.243; to FDCPICGRGFTQKGNLLRHIKL, -0.612.
In the case of FHCEICGHIFTQKGNLLRHIKL, the “log2 fold change of degron read counts” value stood at 0.24.
For FVCDQCGAQFTQKGNLLRHIKL the value was -1.25; for FACEICGAMFTQKGNLLRHIKL, -1.37; for LWCEICGFACTQKGNLLRHIKL, 1.29.
As for LVCPICGFACTQKGNLLRHIKL, the “log2 fold change of degron read counts” value worked out at 0.747.
Consider FECNICGAWFTQKGNLLRHIKL, for which the “log2 fold change of degron read counts” value was -0.339.
To FICDVCGAAFTQKGNLLRHIKL belongs -1.28.
For FMCDVCGARFTQKGNLLRHIKL the value was -1.23; for FQCDICGAMFTQKGNLLRHIKL, -1.16; for FRCPICGRFFTQKGNLLRHIKL, 0.753.
As for FFCPVCGAEFTQKGNLLRHIKL, the “log2 fold change of degron read counts” value was -0.202.
Consider FTCSVCGHKFTQKGNLLRHIKL, for which the “log2 fold change of degron read counts” value was found to be 0.0406.
Regarding FLCPICGRVFTQKGNLLRHIKL, the “log2 fold change of degron read counts” value was 0.233.
To FGCNICGAWFTQKGNLLRHIKL belongs 0.381.
To FCCDVCGAYFTQKGNLLRHIKL belongs -0.255; to FECDQCGACFTQKGNLLRHIKL, -2.57.
To FSCNICGAVFTQKGNLLRHIKL belongs -0.479.
